The list shows a part of the results. The main result of the screen is listed elsewhere. These columns were measured beside it and carry no call.
Columns and labels:
Assay in all cases: Primary Screen for Target Class Profiling of Small Molecule Inhibitors of Methyltransferases
[1] = target: Glycine N-methyltransferase (Homo sapiens) (UniProt Q14749); conditions: purified enzyme, MTase-Glo SAH luminescence; measured here: GNMT inhibition; at 40 µM; stronger effect = lower value
In short: (§1)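 Each enzyme was assayed with SAM and its substrate. SAH formation detected by MTase-Glo luminescence; single-point 40 uM screen[…].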

[2] = target: Guanidinoacetate N-methyltransferase (Homo sapiens) (UniProt Q14353); conditions: purified enzyme, MTase-Glo SAH luminescence; measured here: GAMT inhibition; at 40 µM; stronger effect = lower value
In short: as §1

[3] = target: Histamine N-methyltransferase (Homo sapiens) (UniProt P50135); conditions: purified enzyme, MTase-Glo SAH luminescence; measured here: HNMT inhibition; at 40 µM; stronger effect = lower value
In short: as §1

[4] = target: Nicotinamide N-methyltransferase (Homo sapiens) (UniProt P40261); conditions: purified enzyme, MTase-Glo SAH luminescence; measured here: NNMT inhibition; at 40 µM; stronger effect = lower value
In short: as §1

[5] = target: Phenylethanolamine N-methyltransferase (Homo sapiens) (UniProt P11086); conditions: purified enzyme, MTase-Glo SAH luminescence; measured here: PNMT inhibition; at 40 µM; stronger effect = lower value
In short: as §1
% is scaled to controls: 0 for no effect and ±100 for the full control effect.

Compound | activity change, negative = inhibition [1] [%] | activity change, negative = inhibition [2] [%] | activity change, negative = inhibition [3] [%] | activity change, negative = inhibition [4] [%] | activity change, negative = inhibition [5] [%]
CCOc1ccc(CNC(=O)c2cc3n(n2)CC(C)(C(=O)NC2CCCCCC2)N(C)C3=O)cc1 (stereo not drawn) | -1.3 | 2.78 | -4.4 | -2.86 | -1.55
COc1ccc(CN2C(=O)c3cc4ccc(OC)cc4n3CC2(C)C(=O)NC2CCCC2)cc1 (stereo not drawn) | -7.65 | 1.19 | -6.91 | -14.5 | -5.08
c1coc(-c2ccnc3nc(C4CCC4)nn23)c1 | -24.8 | -7.53 | -6.56 | -18.1 | -12.4
COCCCNc1nc2c(S(=O)(=O)c3ccccc3)nnn2c2ccccc12 | 4.58 | 0 | 9.94 | 7.7 | 3.45
Cc1cc(C)n(-c2cccc(CN(C)C(=O)c3cn(Cc4ccc(Cl)cc4)nn3)c2)n1 | -21.5 | -7.47 | -6.2 | -14.9 | -0.925
CCCN(CCC)CCCN1C(=O)c2cc3occc3n2CC1(C)C(=O)NC1CCCCCC1 (stereo not drawn) | 3.15 | 0 | 2.06 | 10.4 | 2.09
Cc1noc(C)c1-c1ccc2c(n1)CN(Cc1nc3ccccc3s1)C(=O)CO2 | -14.2 | -8.97 | -26.3 | -28.6 | -9.5
C/C=C/C=C/C=C/C(=O)O[C@@H]1C=C(CO)C(O)(C(=O)O)[C@@]2(C)CCCC(C)(C)[C@H]12 (stereo partly drawn) | -1.05 | -22.6 | -1.26 | -35.6 | -2.38
O=S(=O)(N[C@H]1CCCC[C@@H]1N1CCOCC1)c1ccc(Cl)cc1 | 0.536 | -2.81 | 4.8 | -12 | -2.69
CC(C)CCNC(=O)C1(C)Cn2c(cc3ccccc32)C(=O)N1Cc1ccc(F)cc1 (stereo not drawn) | -2.16 | 4.32 | -0.236 | -7.31 | -2.48
CCN(CC)CCCN1C(=O)c2cc3sccc3n2CC1(C)C(=O)NC1CCCCCC1 (stereo not drawn) | -2.62 | 3.82 | -7.72 | -0.077 | -6.27
Cc1ccc(-c2n[nH]n3c2nc(=O)c2ccc(C(=O)N4CCN(c5cc(C)ccc5C)CC4)cc23)cc1 | -23.5 | -1.68 | -8.06 | -21.8 | -5.25
CNC(=O)[C@@H]1CN(C(=O)CCc2cccc(OC)c2)C[C@H]1c1nc(C)no1 | -0.326 | -1.15 | 0.041 | -2.2 | 0.687
Cc1noc2ncnc(N3CCC4(CC3)CC(c3ccccc3)CN(C)C4)c12 (stereo not drawn) | -9.15 | -7.04 | -38.4 | -15.8 | -3.74
CC1(c2cccnc2)N(CC2CC2)C(=O)OC12CCN(C(=O)c1cccc(O)c1)CC2 (stereo not drawn) | -0.985 | -1.82 | 0.551 | -7.41 | -13.4
O=C(CN1C(=O)C2(CCNCC2)Nc2ccccc21)NC1CCCCCC1 | -0.738 | -1.03 | -1.4 | -4.38 | -3.95
Cc1ccc(C(=O)Cn2nc3n(C)c(=O)c4ccc(C(=O)NC5CCCCC5)cc4n3c2=O)cc1 | 3.15 | 0 | 9.49 | 1.07 | 2.15
CN(CCc1ccccn1)C(=O)c1ccc2c(c1)[nH]c(=O)n2C1CCC(O)CC1 (stereo not drawn) | -6.33 | -10.9 | -2.91 | -16.4 | -12.4
CCC(C)C(=O)O[C@H]1[C@@H](O[C@H]2O[C@H](CO)[C@@H](O)[C@H](O)[C@H]2O)O[C@H](CO)[C@@H](O)[C@@H]1O (stereo partly drawn) | 0 | 0.144 | 9.34 | -15.3 | -11.4

Compound | activity change, negative = inhibition [1] [%] | activity change, negative = inhibition [2] [%] | activity change, negative = inhibition [3] [%] | activity change, negative = inhibition [4] [%] | activity change, negative = inhibition [5] [%]
CN(C)Cc1nnc(C2CC(NC(=O)c3nc4ccccc4[nH]3)C2)n1C (stereo not drawn) | -5.67 | -11.7 | -4.67 | -7.89 | -7.19
BrC1C(Br)C(Br)C(Br)C(Br)C1Br (stereo not drawn) | – | -11.1 | – | -5.63 | 7.51
O=C(N1CCC(NS(=O)(=O)c2cccs2)CC1)N1CC2CC(C1)[C@H]1CCCC(=O)N1C2 (stereo partly drawn) | 6.25 | 3.51 | 3.48 | 3.98 | -7.48
O=C(N/N=C/c1ccc(O)c(O)c1)c1cc2ccccc2cc1O | -14 | -14.3 | 8.13 | -19.4 | -2.99
CCCn1c(=O)c2ccccc2n2c(SCC(=O)NCc3cccc(OC)c3)nnc12 | -3.13 | -0.232 | 0.741 | -11.9 | -2.88
O=C(CCC1CCCN(S(=O)(=O)c2ccc(F)cc2)C1)NCc1ccco1 (stereo not drawn) | 11.4 | 0 | 10.7 | 8.99 | 6.39
C/C(=C\CCC(C(=O)O)C1CCC2(C)C3=C(CCC12C)C1(C)CCC(=O)C(C)(C)C1CC3)C(=O)O (stereo not drawn) | 0 | 2.75 | 4.75 | -11.3 | 3.95
COc1ccc(-c2cc(C[C@@H]3CC[C@H](O)[C@@H](CNC4CCN(C(C)=O)CC4)O3)no2)cc1 | -4.65 | -3.13 | -1.14 | -5.37 | -1.25
COc1ccc(CNC(=O)CCc2nnc3n(CCCOC(C)C)c(=O)c4ccccc4n23)cc1 | -4.67 | -2.12 | 2.1 | -0.686 | -10.2
CCOc1ccc(CCNC(=O)CCc2nnc3n(CCC(C)C)c(=O)c4ccccc4n23)cc1 | -8.11 | 3.22 | -1.1 | -13.9 | -5.1
CC1CCCC(NC(=O)C2(C)Cn3c(cc4occc43)C(=O)N2Cc2ccccc2Cl)C1C (stereo not drawn) | -2.01 | 4.85 | -2.47 | -4.47 | -6.99
COc1ccccc1CCC(=O)N1CC(C(=O)N(C)C)C2(CCOCC2)C1 (stereo not drawn) | -1.63 | -4.75 | -0.745 | -6.22 | -1.56
COc1ccc(CN2C(=O)c3cc4ccccc4n3CC2(C)C(=O)NCc2ccccc2)cc1OC (stereo not drawn) | -3.56 | 2.16 | -5.16 | -52.1 | -7.84
CN(Cc1ccccc1)C(=O)CN(C)S(=O)(=O)c1ccc2[nH]c3c(c2c1)CCCC3 | -12.3 | -0.202 | -6.83 | -5.62 | -7.36
c1ccc(-c2nnn3c2nc(NCCc2c[nH]c4ccccc24)c2ccccc23)cc1 | -10.7 | 1.7 | -4.03 | -4.82 | -3.5
O[C@H]1CC[C@@H](Cc2cc(-c3ccccn3)on2)O[C@@H]1CN(Cc1ccccc1)Cc1ccccc1 | -2 | -0.427 | -0.11 | -2.43 | 0.346
Cc1ccc(Cl)cc1N1CCN(S(=O)(=O)c2cccc(-c3nc(-c4ccccc4)no3)c2)CC1 | 12.3 | 0 | 8.76 | 2.81 | 3.62
C[C@]12CC[C@H](O)CC1=CCC1C2CC[C@]2(C)C(n3cnc4ccccc43)=CCC12 (stereo partly drawn) | -9.44 | -10.1 | -3.36 | -36.9 | -16.5
COCCCN1C(=O)c2nc3ccccc3n2CC1(C)C(=O)NC1CCCC1 (stereo not drawn) | 3.77 | 4.92 | -1.42 | 4.54 | -3.07
